Measurements from the supplement of paper PMC9151546.
Single values are uncertain, as repeats are few or missing.

What was measured:
CHO-K1 [1] = test: relative survival (nuclei to bead ratio vs DMSO control) (% of vehicle control); higher = more surviving cells
Experimental: (§1)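 Flow-cytometric in vitro micronucleus assay (Litron MicroFlow) in CHO-K1 cells in 96-well plates, 19 concentrations (4.5-200 µM, n=1 per concentration). Without S9, cells were exposed for 24 h and sampled at 48 h. With Aroclor 1254-induced rat liver S9, cells were exposed for 3-4 h and sampled at 27-28 h. Read-outs are %MN and %hypodiploid nuclei relative to nucleated events, and relative survival as the nuclei-to-bead ratio versus the 1% DMSO vehicle control (x100).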

CHO-K1 [2] = test: micronucleus frequency (% of nucleated events); higher = more micronuclei (genotoxic)
CHO-K1 [3] = test: hypodiploid nuclei frequency (% of nucleated events); higher = more hypodiploid events (aneugenic)
Experimental: as §1
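Wherever hypodiploid nuclei frequency (% of nucleated events) is given: hypodiploid nuclei gated on a flow cytometer with 488 nm excitation after SYTOX Green staining, cultures at 37 °C, positive controls vinblastine without S9 and cyclophosphamide with S9.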
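Wherever micronucleus frequency (% of nucleated events) is given: cells lysed with nuclei stained by SYTOX Green, then micronucleus-gated events counted against nucleated events by flow cytometry with 488 nm excitation.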
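Wherever relative survival (nuclei to bead ratio vs DMSO control) is given: Lysed-cell nuclei stained with SYTOX Green and counted against counting beads by flow cytometry at 488 nm excitation, with vinblastine (no S9) and cyclophosphamide (plus S9) as positive controls.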

CCCc1cc(=O)[nH]c(=S)[nH]1 [6-Propyl-2-thiouracil]
Details	hypodiploid nuclei frequency, CHO-K1 [3] [%]	micronucleus frequency, CHO-K1 [2] [%]	relative survival, CHO-K1 [1]
concentration: 4.5 (µM), S9 metabolic activation: with S9, exposure time: 3-4 hours	0.16	1.08	75
concentration: 4.5 (µM), S9 metabolic activation: without S9, exposure time: 24 hours	0.64	1.8	110
concentration: 5.63 (µM), S9 metabolic activation: with S9, exposure time: 3-4 hours	0.28	1.12	80.5
concentration: 5.63 (µM), S9 metabolic activation: without S9, exposure time: 24 hours	0.56	2.26	133
concentration: 7.04 (µM), S9 metabolic activation: with S9, exposure time: 3-4 hours	0.12	1.14	80.8
concentration: 7.04 (µM), S9 metabolic activation: without S9, exposure time: 24 hours	0.36	1.54	132
concentration: 8.8 (µM), S9 metabolic activation: with S9, exposure time: 3-4 hours	0.28	0.92	83
concentration: 8.8 (µM), S9 metabolic activation: without S9, exposure time: 24 hours	0.58	2.3	131
concentration: 11 (µM), S9 metabolic activation: with S9, exposure time: 3-4 hours	0.2	0.98	101
concentration: 11 (µM), S9 metabolic activation: without S9, exposure time: 24 hours	0.66	2.06	108
concentration: 13.7 (µM), S9 metabolic activation: with S9, exposure time: 3-4 hours	0.16	0.98	89.8
concentration: 13.7 (µM), S9 metabolic activation: without S9, exposure time: 24 hours	0.54	3.66	113
concentration: 17.2 (µM), S9 metabolic activation: with S9, exposure time: 3-4 hours	0.34	1.22	110
concentration: 17.2 (µM), S9 metabolic activation: without S9, exposure time: 24 hours	0.52	2.78	110
concentration: 21.5 (µM), S9 metabolic activation: with S9, exposure time: 3-4 hours	0.24	1.38	98.7
concentration: 21.5 (µM), S9 metabolic activation: without S9, exposure time: 24 hours	0.26	1.84	96.4
concentration: 26.8 (µM), S9 metabolic activation: with S9, exposure time: 3-4 hours	0.18	1.44	87.2
concentration: 26.8 (µM), S9 metabolic activation: without S9, exposure time: 24 hours	0.46	1.36	87.8
concentration: 33.6 (µM), S9 metabolic activation: with S9, exposure time: 3-4 hours	0.26	1.2	88.7
concentration: 33.6 (µM), S9 metabolic activation: without S9, exposure time: 24 hours	0.4	1.88	124
concentration: 41.9 (µM), S9 metabolic activation: with S9, exposure time: 3-4 hours	0.24	1.16	80.8
concentration: 41.9 (µM), S9 metabolic activation: without S9, exposure time: 24 hours	0.44	1.46	109
concentration: 52.4 (µM), S9 metabolic activation: with S9, exposure time: 3-4 hours	0.18	1.38	93.8
concentration: 52.4 (µM), S9 metabolic activation: without S9, exposure time: 24 hours	0.62	2.16	118
concentration: 65.5 (µM), S9 metabolic activation: with S9, exposure time: 3-4 hours	0.64	2.64	91.8
concentration: 65.5 (µM), S9 metabolic activation: without S9, exposure time: 24 hours	0.6	1.98	98.9
concentration: 81.9 (µM), S9 metabolic activation: with S9, exposure time: 3-4 hours	0.22	2	88.7
concentration: 81.9 (µM), S9 metabolic activation: without S9, exposure time: 24 hours	0.44	1.5	114
concentration: 102 (µM), S9 metabolic activation: with S9, exposure time: 3-4 hours	0.26	1.24	72.7
concentration: 102 (µM), S9 metabolic activation: without S9, exposure time: 24 hours	0.58	2.52	109
concentration: 128 (µM), S9 metabolic activation: with S9, exposure time: 3-4 hours	0.28	0.78	89.1
concentration: 128 (µM), S9 metabolic activation: without S9, exposure time: 24 hours	1.16	2.24	88.2
concentration: 160 (µM), S9 metabolic activation: with S9, exposure time: 3-4 hours	0.3	2.38	94.7
concentration: 160 (µM), S9 metabolic activation: without S9, exposure time: 24 hours	0.78	2.86	104
concentration: 200 (µM), S9 metabolic activation: with S9, exposure time: 3-4 hours	0.26	2.16	86.1
concentration: 200 (µM), S9 metabolic activation: without S9, exposure time: 24 hours	1.08	2.54	79.3

CSC(C)(C)/C=N/O [Aldicarb oxime]
Details	hypodiploid nuclei frequency, CHO-K1 [3] [%]	micronucleus frequency, CHO-K1 [2] [%]	relative survival, CHO-K1 [1]
concentration: 4.5 (µM), S9 metabolic activation: with S9, exposure time: 3-4 hours	0.22	1.66	138
concentration: 4.5 (µM), S9 metabolic activation: without S9, exposure time: 24 hours	0.54	1.42	173
concentration: 5.63 (µM), S9 metabolic activation: with S9, exposure time: 3-4 hours	0.2	1.3	96.8
concentration: 5.63 (µM), S9 metabolic activation: without S9, exposure time: 24 hours	0.36	1.7	170
concentration: 7.04 (µM), S9 metabolic activation: with S9, exposure time: 3-4 hours	0.32	1.02	121
concentration: 7.04 (µM), S9 metabolic activation: without S9, exposure time: 24 hours	0.44	1.12	130
concentration: 8.8 (µM), S9 metabolic activation: with S9, exposure time: 3-4 hours	0.22	1.1	106
concentration: 8.8 (µM), S9 metabolic activation: without S9, exposure time: 24 hours	0.4	1.06	154
concentration: 11 (µM), S9 metabolic activation: with S9, exposure time: 3-4 hours	0.22	1.16	112
concentration: 11 (µM), S9 metabolic activation: without S9, exposure time: 24 hours	0.36	1.08	140
concentration: 13.7 (µM), S9 metabolic activation: with S9, exposure time: 3-4 hours	0.24	1.04	130
concentration: 13.7 (µM), S9 metabolic activation: without S9, exposure time: 24 hours	0.2	1.12	117
concentration: 17.2 (µM), S9 metabolic activation: with S9, exposure time: 3-4 hours	0.4	1.38	144
concentration: 17.2 (µM), S9 metabolic activation: without S9, exposure time: 24 hours	0.3	1.14	147
concentration: 21.5 (µM), S9 metabolic activation: with S9, exposure time: 3-4 hours	0.26	1.28	122
concentration: 21.5 (µM), S9 metabolic activation: without S9, exposure time: 24 hours	0.56	1.18	115
concentration: 26.8 (µM), S9 metabolic activation: with S9, exposure time: 3-4 hours	0.24	1.12	125
concentration: 26.8 (µM), S9 metabolic activation: without S9, exposure time: 24 hours	0.56	1.18	153
concentration: 33.6 (µM), S9 metabolic activation: with S9, exposure time: 3-4 hours	0.48	1.66	109
concentration: 33.6 (µM), S9 metabolic activation: without S9, exposure time: 24 hours	0.4	0.96	139
concentration: 41.9 (µM), S9 metabolic activation: with S9, exposure time: 3-4 hours	0.22	1.22	144
concentration: 41.9 (µM), S9 metabolic activation: without S9, exposure time: 24 hours	0.82	1.3	186
concentration: 52.4 (µM), S9 metabolic activation: with S9, exposure time: 3-4 hours	0.32	1.02	110
concentration: 52.4 (µM), S9 metabolic activation: without S9, exposure time: 24 hours	0.6	1.4	145
concentration: 65.5 (µM), S9 metabolic activation: with S9, exposure time: 3-4 hours	0.34	0.74	132
concentration: 65.5 (µM), S9 metabolic activation: without S9, exposure time: 24 hours	0.6	1.52	108
concentration: 81.9 (µM), S9 metabolic activation: with S9, exposure time: 3-4 hours	0.32	1.18	109
concentration: 81.9 (µM), S9 metabolic activation: without S9, exposure time: 24 hours	0.72	1.4	135
concentration: 102 (µM), S9 metabolic activation: with S9, exposure time: 3-4 hours	0.26	1.52	111
concentration: 102 (µM), S9 metabolic activation: without S9, exposure time: 24 hours	0.56	1.3	113
concentration: 128 (µM), S9 metabolic activation: with S9, exposure time: 3-4 hours	0.26	1.14	115
concentration: 128 (µM), S9 metabolic activation: without S9, exposure time: 24 hours	0.64	1.48	136
concentration: 160 (µM), S9 metabolic activation: with S9, exposure time: 3-4 hours	0.2	1.88	109
concentration: 160 (µM), S9 metabolic activation: without S9, exposure time: 24 hours	0.8	1.7	167
concentration: 200 (µM), S9 metabolic activation: with S9, exposure time: 3-4 hours	0.3	1.34	127
concentration: 200 (µM), S9 metabolic activation: without S9, exposure time: 24 hours	1	2.22	124

ClC1=C(Cl)C2(Cl)C3C4C=CC(C4)C3C1(Cl)C2(Cl)Cl (stereo not drawn) [Aldrin]
Details	hypodiploid nuclei frequency, CHO-K1 [3] [%]	micronucleus frequency, CHO-K1 [2] [%]	relative survival, CHO-K1 [1]
concentration: 4.5 (µM), S9 metabolic activation: with S9, exposure time: 3-4 hours	0.18	1.66	132
concentration: 4.5 (µM), S9 metabolic activation: without S9, exposure time: 24 hours	0.7	1.24	99.7
concentration: 5.63 (µM), S9 metabolic activation: with S9, exposure time: 3-4 hours	0.14	1.4	79.6
concentration: 5.63 (µM), S9 metabolic activation: without S9, exposure time: 24 hours	0.74	1.7	108
concentration: 7.04 (µM), S9 metabolic activation: with S9, exposure time: 3-4 hours	0.12	1.24	102
concentration: 7.04 (µM), S9 metabolic activation: without S9, exposure time: 24 hours	0.66	1.38	108
concentration: 8.8 (µM), S9 metabolic activation: with S9, exposure time: 3-4 hours	0.22	1.26	99.7
concentration: 8.8 (µM), S9 metabolic activation: without S9, exposure time: 24 hours	0.5	1.74	89.8
concentration: 11 (µM), S9 metabolic activation: with S9, exposure time: 3-4 hours	0.3	1.14	98.6
concentration: 11 (µM), S9 metabolic activation: without S9, exposure time: 24 hours	0.48	2.08	112
concentration: 13.7 (µM), S9 metabolic activation: with S9, exposure time: 3-4 hours	0.22	0.96	105
concentration: 13.7 (µM), S9 metabolic activation: without S9, exposure time: 24 hours	0.94	1.58	85.2
concentration: 17.2 (µM), S9 metabolic activation: with S9, exposure time: 3-4 hours	0.26	0.96	104
concentration: 17.2 (µM), S9 metabolic activation: without S9, exposure time: 24 hours	0.68	1.64	118
concentration: 21.5 (µM), S9 metabolic activation: with S9, exposure time: 3-4 hours	0.2	1.08	111
concentration: 21.5 (µM), S9 metabolic activation: without S9, exposure time: 24 hours	0.56	1.84	86.3
concentration: 26.8 (µM), S9 metabolic activation: with S9, exposure time: 3-4 hours	0.18	0.82	123
concentration: 26.8 (µM), S9 metabolic activation: without S9, exposure time: 24 hours	0.48	1.6	123
concentration: 33.6 (µM), S9 metabolic activation: with S9, exposure time: 3-4 hours	0.3	1.36	149
concentration: 33.6 (µM), S9 metabolic activation: without S9, exposure time: 24 hours	0.68	2.12	163
concentration: 41.9 (µM), S9 metabolic activation: with S9, exposure time: 3-4 hours	0.24	1.68	112
concentration: 41.9 (µM), S9 metabolic activation: without S9, exposure time: 24 hours	0.6	1.8	122
concentration: 52.4 (µM), S9 metabolic activation: with S9, exposure time: 3-4 hours	0.2	1.52	86.2
concentration: 52.4 (µM), S9 metabolic activation: without S9, exposure time: 24 hours	0.66	2.1	109
concentration: 65.5 (µM), S9 metabolic activation: with S9, exposure time: 3-4 hours	0.25	1.2	74.7
concentration: 65.5 (µM), S9 metabolic activation: without S9, exposure time: 24 hours	0.9	1.96	91.3
concentration: 81.9 (µM), S9 metabolic activation: with S9, exposure time: 3-4 hours	0.15	0.76	63.8
concentration: 81.9 (µM), S9 metabolic activation: without S9, exposure time: 24 hours	0.82	2.42	75.9
concentration: 102 (µM), S9 metabolic activation: with S9, exposure time: 3-4 hours	0.14	1.29	57.6
concentration: 102 (µM), S9 metabolic activation: without S9, exposure time: 24 hours	0.88	2.22	54.3
concentration: 128 (µM), S9 metabolic activation: with S9, exposure time: 3-4 hours	0.24	0.8	62.5
concentration: 128 (µM), S9 metabolic activation: without S9, exposure time: 24 hours	0.9	1.8	46
concentration: 160 (µM), S9 metabolic activation: with S9, exposure time: 3-4 hours	0.05	3.77	51
concentration: 160 (µM), S9 metabolic activation: without S9, exposure time: 24 hours	–	–	12.6
concentration: 200 (µM), S9 metabolic activation: with S9, exposure time: 3-4 hours	–	–	9.88
concentration: 200 (µM), S9 metabolic activation: without S9, exposure time: 24 hours	–	–	0.54
